Measurements from the supplement of paper PMC4604168 (melanoma cell lines).
Some of the results follow. Single values are uncertain, as repeats are few or missing.

Test system: WM451Lu
Experiment: cell count relative to DMSO control; melanoma cells; higher = more viable cells
Details: library dose: low library concentration; 72 h; first compound 0.4 µM
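Note: cell number obtained by counting DAPI-stained nuclei in high-throughput microscope images with image analysis software, screen run in 1,536-well plates.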

| Compound | cell count |
| --- | --- |
| CCCCCCCCCCCCCCCCCCOP(=O)([O-])OC1CC[N+](C)(C)CC1 [Perifosine] + CNC(=O)c1cc(Oc2ccc(NC(=O)Nc3ccc(Cl)c(C(F)(F)F)c3)cc2)ccn1 [sorafenib] (partner dose 0.4 µM) | 107% |
| C[C@@H](N)c1ccc(C(=O)Nc2ccnc3[nH]ccc23)cc1 + COc1cc(N2CCC(N3CCN(C)CC3)CC2)ccc1Nc1ncc(Cl)c(Nc2ccccc2S(=O)(=O)C(C)C)n1 [NVP-TAE684] (partner dose 0.08 µM) | 85.3% |
| Cn1sc(=O)n(Cc2ccccc2)c1=O + Nc1cccc2c1CN(C1CCC(=O)NC1=O)C2=O [lenalidomide] (partner dose 1 µM) | 113% |
| CCCCCCCCCCCCCCCCCCOP(=O)([O-])OC1CC[N+](C)(C)CC1 [Perifosine] + O=C1NC(=O)/C(=C/c2ccc(-c3ccc(F)cc3O)o2)S1 [AS252424] (partner dose 1 µM) | 118% |
| Cn1sc(=O)n(Cc2ccccc2)c1=O + O=C(Nc1ccccc1)c1cc([N+](=O)[O-])ccc1Cl [GW9662] (partner dose 2 µM) | 101% |
| Cn1sc(=O)n(Cc2ccccc2)c1=O + Clc1ccc(Nc2nnc(Cc3ccncc3)c3ccccc23)cc1 [vatalanib] (partner dose 2 µM) | 104% |
| C[C@@H](N)c1ccc(C(=O)Nc2ccnc3[nH]ccc23)cc1 + C[C@@H](Oc1cc(-c2cnn(C3CCNCC3)c2)cnc1N)c1c(Cl)ccc(F)c1Cl [Crizotinib] (partner dose 0.2 µM) | 120% |
| C[C@@H](N)c1ccc(C(=O)Nc2ccnc3[nH]ccc23)cc1 + CC(C)CCN1c2nc(Nc3cc(F)c(O)c(F)c3)ncc2N(C)C(=O)C1C [BID1870] (partner dose 0.2 µM) | 94.4% |
| C[C@@H](N)c1ccc(C(=O)Nc2ccnc3[nH]ccc23)cc1 + C[C@]1(c2nc3c(C(N)=O)cccc3[nH]2)CCCN1 [Veliparib] (partner dose 1.4 µM) | 81.6% |
| Cn1sc(=O)n(Cc2ccccc2)c1=O + COc1ccc(C2=N[C@@H](c3ccc(Cl)cc3)[C@@H](c3ccc(Cl)cc3)N2C(=O)N2CCNC(=O)C2)c(OC(C)C)c1 [Nutlin-3] (partner dose 0.1 µM) | 85.6% |
| CCCCCCCCCCCCCCCCCCOP(=O)([O-])OC1CC[N+](C)(C)CC1 [Perifosine] + CCCCCCCCCCCC1=C(O)C(=O)C=C(O)C1=O [Embelin] (partner dose 1.2 µM) | 81.9% |
| CCCCCCCCCCCCCCCCCCOP(=O)([O-])OC1CC[N+](C)(C)CC1 [Perifosine] + COC(=O)c1sccc1S(=O)(=O)Nc1ccc(Nc2ccccc2)cc1OC [GSK0660] (partner dose 1 µM) | 105% |
| C[C@@H](N)c1ccc(C(=O)Nc2ccnc3[nH]ccc23)cc1 + Cc1cc(Nc2cc(N3CCN(C)CC3)nc(/C=C/c3ccccc3)n2)n[nH]1 [ENMD2076] (partner dose 0.04 µM) | 72.4% |
| CCCCCCCCCCCCCCCCCCOP(=O)([O-])OC1CC[N+](C)(C)CC1 [Perifosine] + COCC[n+]1c2c(n(Cc3cnccn3)c1C)C(=O)c1ccccc1C2=O [YM155] (partner dose 0.0004 µM) | 57.2% |
| C[C@@H](N)c1ccc(C(=O)Nc2ccnc3[nH]ccc23)cc1 + O=C(Nc1cccc(Cl)c1)Nc1ncc(CCNc2ncnc3ccsc23)s1 [SNS314] (partner dose 0.0008 µM) | 102% |
| CCCCCCCCCCCCCCCCCCOP(=O)([O-])OC1CC[N+](C)(C)CC1 [Perifosine] + C=CCn1c(=O)c2cnc(Nc3ccc(N4CCN(C)CC4)cc3)nc2n1-c1cccc(C(C)(C)O)n1 [MK1775] (partner dose 0.02 µM) | 84.8% |
| CCCCCCCCCCCCCCCCCCOP(=O)([O-])OC1CC[N+](C)(C)CC1 [Perifosine] + C=C(c1ccc(C(=O)O)cc1)c1cc2c(cc1C)C(C)(C)CCC2(C)C [Bexarotene] (partner dose 2 µM) | 82.3% |
| CCCCCCCCCCCCCCCCCCOP(=O)([O-])OC1CC[N+](C)(C)CC1 [Perifosine] + Nc1ncn([C@H]2C[C@H](O)[C@@H](CO)O2)c(=O)n1 [decitabine] (partner dose 0.1 µM) | 92.7% |
| C[C@@H](N)c1ccc(C(=O)Nc2ccnc3[nH]ccc23)cc1 + C[C@]1(O)C[C@@H](c2nc(-c3ccc4ccc(-c5ccccc5)nc4c3)c3c(N)nccn32)C1 [OSI906] (partner dose 0.4 µM) | 89% |
